Results as given in PMC4336329 (PLoS ONE, 2015).
Out of some 310,000 compounds screened, about 2,200 (0.71%) showed an effect of 50% or more. The effect is printed as a negative number. Some of the results follow.

molecular target: human ether-à-go-go-related gene (hERG) potassium channel (human, UniProt Q12809); test: primary screen, population patch clamp on CHO cells stably expressing hERG
Sequence (Q12809 whole entry, looked up): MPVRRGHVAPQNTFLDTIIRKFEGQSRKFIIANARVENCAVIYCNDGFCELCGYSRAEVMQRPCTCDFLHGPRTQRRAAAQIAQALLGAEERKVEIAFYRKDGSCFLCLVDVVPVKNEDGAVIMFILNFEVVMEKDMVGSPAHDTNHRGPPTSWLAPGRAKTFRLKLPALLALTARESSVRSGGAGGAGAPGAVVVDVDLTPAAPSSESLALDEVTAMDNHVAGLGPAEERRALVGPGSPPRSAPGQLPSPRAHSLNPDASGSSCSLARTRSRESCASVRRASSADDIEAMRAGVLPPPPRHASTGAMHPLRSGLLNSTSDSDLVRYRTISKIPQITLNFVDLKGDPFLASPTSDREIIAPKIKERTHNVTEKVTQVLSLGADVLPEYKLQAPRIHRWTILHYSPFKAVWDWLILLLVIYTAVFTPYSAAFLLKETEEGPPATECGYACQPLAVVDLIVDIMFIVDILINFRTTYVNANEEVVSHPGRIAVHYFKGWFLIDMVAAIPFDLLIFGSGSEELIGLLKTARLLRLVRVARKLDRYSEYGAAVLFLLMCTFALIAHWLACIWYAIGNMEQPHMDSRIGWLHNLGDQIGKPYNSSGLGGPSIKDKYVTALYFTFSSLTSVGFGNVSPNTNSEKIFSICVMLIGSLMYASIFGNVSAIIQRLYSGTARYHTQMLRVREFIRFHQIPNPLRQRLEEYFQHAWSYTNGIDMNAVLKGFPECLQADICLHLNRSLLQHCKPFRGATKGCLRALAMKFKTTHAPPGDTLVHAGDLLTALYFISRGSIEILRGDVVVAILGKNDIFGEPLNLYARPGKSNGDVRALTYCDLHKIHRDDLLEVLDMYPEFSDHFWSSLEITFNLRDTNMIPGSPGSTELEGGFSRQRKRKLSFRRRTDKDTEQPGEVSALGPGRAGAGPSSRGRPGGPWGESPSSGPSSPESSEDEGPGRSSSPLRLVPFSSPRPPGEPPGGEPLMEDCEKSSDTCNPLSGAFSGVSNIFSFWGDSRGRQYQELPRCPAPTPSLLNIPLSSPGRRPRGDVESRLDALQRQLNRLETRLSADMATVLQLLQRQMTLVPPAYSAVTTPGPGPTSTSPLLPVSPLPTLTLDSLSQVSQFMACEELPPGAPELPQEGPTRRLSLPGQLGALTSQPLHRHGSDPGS

| Compound | hERG current change (%, negative = inhibition) at 1uM |
| --- | --- |
| Cc1c(/C=N/NC(=O)c2cc(C(C)(C)C)[nH]n2)c2ccccc2n1C | 8.94% |
| O=C(COc1ccccc1F)NCc1nc2ccccc2[nH]1 | 0.802% |
| COc1ccc(NC(=O)c2c(C)oc3c2CCCC3)cc1 | 10.5% |
| CCOC(=O)CCNC(=O)c1ccccc1Br | 6.92% |
| COc1cccc(C(=O)Nc2nnc(-c3cccs3)s2)c1 | 8.2% |
| COC(=O)C(=O)N1CC2(C)CNCC(C)(C1)C2=O | 2.03% |
| CC1=C(C(=O)OCc2ccccc2)C(/C=C/c2ccccc2)N2C(=O)CCSC2=N1 (stereo not drawn) | 17.6% |
| COc1cccc(OCC(O)CN2CCN(C(c3ccccc3)c3ccccc3)CC2)c1.Cl (stereo not drawn) | 3.72% |
| O=C(N=Nc1c(O)[nH]c2ccccc12)c1ccco1 | 14.3% |
| CCCNC(=O)c1ccccc1NS(=O)(=O)c1ccc2c(c1)OCCO2 | 14.1% |
| O=C(C1CCN(S(=O)(=O)c2cccc3cccnc23)CC1)N1CCN(c2ccccn2)CC1 | -7.75% |
| COc1ccc(S(=O)(=O)CCC(=O)N2CCN(c3cccc(Cl)c3)CC2)cc1 | 6.35% |
| COc1ccc(-c2nc(=S)[nH][nH]2)cc1OC | 10.4% |
| CCOC(=O)C1CCCN(C(=O)c2cccc(S(=O)(=O)N(C)c3ccc(C)cc3)c2)C1 (stereo not drawn) | -5.55% |
| COc1ccc(/C=C/C(=O)Nc2ccc(-n3nncc3-c3ccccc3)cc2)cc1OC | 6.33% |
| CC(C)(C)n1nc2c(c1NC(=O)c1ccc(C(F)(F)F)cc1)CS(=O)(=O)C2 | -9.67% |
| COc1ccc(CNC(=S)Nc2ccccc2F)cc1 | 16.1% |
| CCCCNC(=O)C1CC(c2cccc([N+](=O)[O-])c2)=NO1 (stereo not drawn) | 5.09% |
| COc1ccc(N2C(=O)CCC(C(C)=O)=C2C)cc1 | 10.7% |
| COC(=O)CCSc1nccn1Cc1ccccc1 | 8.84% |
| COc1ccc(C(=O)/C=C/Nc2ccc(S(=O)(=O)Nc3cccc(C(C)=O)c3)cc2)cc1 | 6.96% |
| O=C(COC(=O)c1cccc(NS(=O)(=O)c2ccc(F)c(F)c2)c1)NC(=O)NC1CCCCC1 | 11.6% |
| O=C(CCc1ccccc1)c1ccc2c(c1)OCCCO2 | -8.59% |

| Compound | hERG current change (%, negative = inhibition) at 1uM |
| --- | --- |
| CCOC(=S)SCC(=O)Nc1nc(-c2ccccc2)cs1 | 29.9% |
| O=C(N/N=C/c1cn(-c2ccccc2)nc1-c1cc2ccccc2o1)c1ccncc1 | 5.23% |
| CCC(Oc1ccccc1)C(=O)N1CCN(c2ccccn2)CC1 (stereo not drawn) | 13.3% |
| Cc1ccc(C(=O)OCc2nc3ccccc3s2)o1 | 4.16% |
| Cc1ccsc1C(=O)OCC(=O)Nc1ccc(Cl)cc1C(F)(F)F | 5.52% |
| CCc1ccccc1OCC(=O)Nc1ccc(S(N)(=O)=O)cc1 | 23.2% |
| COc1ccc(-c2cc(-c3cccnc3)c(C#N)c(N)n2)cc1 | 8.12% |
| COc1ccc(N2CCN(C(=O)[C@@H]3CCCN3C3=NS(=O)(=O)c4ccccc43)CC2)cc1 | 17.6% |
| CN1CCC(=NNC(=O)C(=O)NC2CCCCC2)CC1 | 4.49% |
| CCCCN(CC)S(=O)(=O)c1ccc(C(=O)Nc2nnc(CSC)o2)cc1 | 5.85% |
| Cc1ccc(-c2csc(NC(=O)/C=C/c3cccs3)n2)cc1C | 12% |
| Cc1cc(C)c(OCC(=O)OC(C)C(=O)N2CCc3ccccc32)c(C)c1 (stereo not drawn) | 11.1% |
| COCCN(C(=O)CSc1nnc(Nc2ccccc2F)s1)c1c(N)n(Cc2ccccc2)c(=O)[nH]c1=O | 11.2% |
| O=C(NCc1ccc2c(c1)OCO2)C(=O)NC1CCCCC1 | 6.07% |
| CN(c1ncc(C(F)(F)F)cc1Cl)N1C(=O)c2cccc(N)c2C1=O | 9.47% |
| COc1ccc(Oc2cn[nH]c2-c2ccc(OC)cc2O)cc1 | 3.1% |
| CCN1CCN(CCOc2ccc(Br)cc2C)CC1.O=C(O)C(=O)O | 6.43% |
| S=C(NCc1ccco1)Nc1ccc(Cl)cc1Cl | 14.5% |
| CCN(CC(=O)NC(C)C)C(=O)CCNC(=O)c1ccc(Cl)cc1 | 14.1% |
| COc1ccccc1CCNC(=O)C(=O)NCC1OCCN1C(=O)c1ccc(Cl)cc1 (stereo not drawn) | 6.93% |
| Cc1cccc(OCC(=O)Nc2ccc(C(=O)NCc3cccnc3)cc2)c1 | 11% |
| CCC(C)c1ccc(NC(=S)Nc2ccc(OC)cc2)cc1 (stereo not drawn) | 8.97% |
